# Measurements as given in article PMC9911399, “Two distinct binding modes provide the RNA-binding protein RbFox with extraordinary sequence specificity”.
# Numbering of substitutions follows the chain as printed; changes in the protein carry UniProt numbers. The list shows a part of the results.
# T1: RBFOX1 RRM RbFoxmut (Fox-RRM*) (Homo sapiens, UniProt Q9NWB1 109-208, R118D;E147R;N151S;E152T)
# T1 sequence: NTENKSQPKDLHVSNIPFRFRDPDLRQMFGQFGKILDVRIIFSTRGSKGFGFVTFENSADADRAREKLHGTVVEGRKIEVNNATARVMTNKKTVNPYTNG
# B1: AGGUUUC (DNA:RNA)
# RNA: GGGAGACCGGAAUUCAGAUUGUCCAGGUUUCUUAAAUCCCGUCGUAGCCACCA
# DNA 1: CAATCTGAATTCCGGTCTCCC
# DNA 2: TGGTGGCTACGACGGGATT
# B2: GGCGAGG (DNA:RNA)
# RNA: B1 RNA with A25G, G27C, U28G, U29A, U30G, C31G
# DNA 1: CAATCTGAATTCCGGTCTCCC
# DNA 2: TGGTGGCTACGACGGGATT
# B3: UACGGCG (DNA:RNA)
# RNA: GGGAGACCGGAAUUCAGAUUGUCCUACGGCGUUAAAUCCCGUCGUAGCCACCA
# DNA 1: CAATCTGAATTCCGGTCTCCC
# DNA 2: TGGTGGCTACGACGGGATT
# B4: GCAUUCC (DNA:RNA)
# RNA: B1 RNA with A25G, G26C, G27A, U30C
# DNA 1: CAATCTGAATTCCGGTCTCCC
# DNA 2: TGGTGGCTACGACGGGATT
# B5: GCAUGAC (DNA:RNA)
# RNA: B1 RNA with A25G, G26C, G27A, U29G, U30A
# DNA 1: CAATCTGAATTCCGGTCTCCC
# DNA 2: TGGTGGCTACGACGGGATT
# B6: AAGGAGA (DNA:RNA)
# RNA: B1 RNA with G26A, U28G, U29A, U30G, C31A
# DNA 1: CAATCTGAATTCCGGTCTCCC
# DNA 2: TGGTGGCTACGACGGGATT
# B7: GGUGGGU (DNA:RNA)
# RNA: B3 RNA with U25G, A26G, C27U, C30G, G31U
# DNA 1: CAATCTGAATTCCGGTCTCCC
# DNA 2: TGGTGGCTACGACGGGATT
# B8: GCUUGGC (DNA:RNA)
# RNA: B1 RNA with A25G, G26C, G27U, U29G, U30G
# DNA 1: CAATCTGAATTCCGGTCTCCC
# DNA 2: TGGTGGCTACGACGGGATT
# B9: UGUCAAA (DNA:RNA)
# RNA: B1 RNA with A25U, G27U, U28C, U29A, U30A, C31A
# DNA 1: CAATCTGAATTCCGGTCTCCC
# DNA 2: TGGTGGCTACGACGGGATT
# B10: CAGGUUA (DNA:RNA)
# RNA: B1 RNA with A25C, G26A, U28G, C31A
# DNA 1: CAATCTGAATTCCGGTCTCCC
# DNA 2: TGGTGGCTACGACGGGATT
# B11: ACACCUA (DNA:RNA)
# RNA: B1 RNA with G26C, G27A, U28C, U29C, C31A
# DNA 1: CAATCTGAATTCCGGTCTCCC
# DNA 2: TGGTGGCTACGACGGGATT
# B12: CGUACUC (DNA:RNA)
# RNA: B1 RNA with A25C, G27U, U28A, U29C
# DNA 1: CAATCTGAATTCCGGTCTCCC
# DNA 2: TGGTGGCTACGACGGGATT
# B13: UGUUAAU (DNA:RNA)
# RNA: B1 RNA with A25U, G27U, U29A, U30A, C31U
# DNA 1: CAATCTGAATTCCGGTCTCCC
# DNA 2: TGGTGGCTACGACGGGATT
# B14: CGAAGGG (DNA:RNA)
# RNA: B3 RNA with U25C, A26G, C27A, G28A, C30G
# DNA 1: CAATCTGAATTCCGGTCTCCC
# DNA 2: TGGTGGCTACGACGGGATT
# B15: GGACCUC (DNA:RNA)
# RNA: B1 RNA with A25G, G27A, U28C, U29C
# DNA 1: CAATCTGAATTCCGGTCTCCC
# DNA 2: TGGTGGCTACGACGGGATT
# B16: AUUACAG (DNA:RNA)
# RNA: B1 RNA with G26U, G27U, U28A, U29C, U30A, C31G
# DNA 1: CAATCTGAATTCCGGTCTCCC
# DNA 2: TGGTGGCTACGACGGGATT
# B17: CCCUUAC (DNA:RNA)
# RNA: B1 RNA with A25C, G26C, G27C, U30A
# DNA 1: CAATCTGAATTCCGGTCTCCC
# DNA 2: TGGTGGCTACGACGGGATT
# B18: CCCAUGA (DNA:RNA)
# RNA: B1 RNA with A25C, G26C, G27C, U28A, U30G, C31A
# DNA 1: CAATCTGAATTCCGGTCTCCC
# DNA 2: TGGTGGCTACGACGGGATT
# B19: CUGCCGC (DNA:RNA)
# RNA: B1 RNA with A25C, G26U, U28C, U29C, U30G
# DNA 1: CAATCTGAATTCCGGTCTCCC
# DNA 2: TGGTGGCTACGACGGGATT
# B20: UCAAUUG (DNA:RNA)
# RNA: B1 RNA with A25U, G26C, G27A, U28A, C31G
# DNA 1: CAATCTGAATTCCGGTCTCCC
# DNA 2: TGGTGGCTACGACGGGATT
# Target: T1, RBFOX1 RRM RbFoxmut (Fox-RRM*)
# Assay: EMSA; HiTS-Eq, 1 nM pool, 10 min; buffer printed only for the single-RNA assays: 10 mM Tris pH 7.5, 150 mM NaCl, 3.4 mM EDTA, 0.001% NP-40, 30 C
# Details: tags: His6 N-terminal (pET28a); label: 5' 32P
# How it was run: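 These values rest on relative association constants, computed from read-count changes of each RNA species versus the control reaction and normalised to the cognate motif. Reads came from free RNA recovered by 8% native PAGE after purified RbFox RRM (wild type or mutant) at increasing concentrations was equilibrated for 10 min in 50 µL with 1 nM of a 5′-radiolabelled pool with 7 randomized nucleotides and DNA-annealed flanks.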
row,Binder,binding signal
1,B1,0.136 KA relative to UGCAUGU
2,B2,0.0853 KA relative to UGCAUGU
3,B3,0.0842 KA relative to UGCAUGU
4,B4,0.0531 KA relative to UGCAUGU
5,B5,0.603 KA relative to UGCAUGU
6,B6,0.0757 KA relative to UGCAUGU
7,B7,0.0962 KA relative to UGCAUGU
8,B8,0.185 KA relative to UGCAUGU
9,B9,0.0676 KA relative to UGCAUGU
10,B10,0.132 KA relative to UGCAUGU
11,B11,0.131 KA relative to UGCAUGU
12,B12,0.0656 KA relative to UGCAUGU
13,B13,0.0817 KA relative to UGCAUGU
14,B14,0.0619 KA relative to UGCAUGU
15,B15,0.0679 KA relative to UGCAUGU
16,B16,0.0954 KA relative to UGCAUGU
17,B17,0.107 KA relative to UGCAUGU
18,B18,0.0942 KA relative to UGCAUGU
19,B19,0.116 KA relative to UGCAUGU
20,B20,0.0766 KA relative to UGCAUGU
